Measured values from the supplement of paper PMC3334620.
The full ranking holds about 33,000 sequences; the median of “E-score (-0.5 to 0.5)” is about -0.054, and the highest 2% start at about 0.39. The list shows a part of the results.

Molecular target: Ylr278c (UniProt Q05854)
Assay: PBM E-score (8-mer binding enrichment) (E-score (-0.5 to 0.5)); higher = stronger / more preferred TF binding; most listed sequences are background and not binding sites
Conditions: protein concentration: 200 nM; construct: GST-DNA-binding domain
Description: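 Universal 'all 10-mer' protein binding microarrays (Agilent AMADID 015681) probed with GST-tagged S. cerevisiae TFs (full-length or DBD) made by in vitro transcription/translation (PURExpress), about 100-200 nM. Bound TF was detected with fluorescent anti-GST. Each ungapped 8-mer (which stands for itself and its reverse complement) is scored by the PBM enrichment score (E-score), a modified Wilcoxon-Mann-Whitney statistic from -0.5 to +0.5, computed with the Universal PBM Analysis Suite. Scale: above 0.35 generally sequence-specific binding.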

Row | Sequence | PBM E-score
1 | AGGACAAA | -0.0109
2 | GCGCGATA | 0.168
3 | TGCAGAAA | -0.00018
4 | AAACCGCA | -0.11
5 | GACCCTGA | -0.0558
6 | CATCTATC | -0.0479
7 | TCGGGACA | 0.163
8 | AGTAGGTG | -0.027
9 | CACGTTCA | -0.148
10 | CCCGGTTC | 0.171
11 | AAACCCGT | 0.0191
12 | CCGGCTTA | 0.36
13 | GATTCAGA | -0.0391
14 | CCCTACAG | -0.218
15 | ATCTTCAC | -0.0748
16 | ACGCTTCA | -0.314
17 | ACATATGT | -0.085
18 | AGCTCCCC | -0.121
19 | CGATCTGA | 0.0201
20 | ACAGCGGC | 0.0736
21 | ACGGTGTC | 0.0954
22 | GACCGCTC | 0.0163
23 | CTCTCCAG | -0.282
24 | GAGAATTA | 0.0026
25 | ACCTCCGG | 0.47

Row | Sequence | PBM E-score
26 | AGAATCCA | -0.089
27 | AAGATATT | 0.0287
28 | GTATGTTA | 0.0152
29 | GATTAGTA | 0.0658
30 | CGACTCGC | 0.0316
31 | GATTAATA | 0.105
32 | GGGGAATA | 0.141
33 | TAAAACAA | -0.0903
34 | ATAACGAC | -0.0629
35 | ACCAGACC | -0.0464
36 | CCAACGAC | -0.258
37 | GTCTCAGA | -0.204
38 | CGATAAAC | -0.0343
39 | GTACCGTA | 0.0161
40 | GATTGGGC | 0.0655
41 | GGAAAACA | 0.211
42 | CTCTATCA | -0.0843
43 | CAAACGTA | -0.146
44 | ACTGACCT | -0.107
45 | AGGCTACC | -0.195
46 | ATGTTTTG | -0.0945
47 | CAGTACGG | -0.0416
48 | GCGTCAGC | 0.0112
49 | GCTTGCCC | -0.231
50 | CGCTATAC | 0.0919

Row | Sequence | PBM E-score
51 | AACACAAC | -0.0104
52 | AAAGCAAT | 0.0295
53 | TGTCCTAA | -0.233
54 | AAATACCA | -0.106
55 | GAAGCTAC | -0.144
56 | AGAGTATC | -0.0153
57 | GGCTTACA | 0.074
58 | TACGTATA | -0.248
59 | AAGGGACA | -0.338
60 | GGATGGCA | 0.162
61 | GGGGCGAA | 0.155
62 | ACTGTGCG | 0.00085
63 | ATTGTGTG | -0.177
64 | ACCTCCGA | 0.454
65 | CCCACACG | 0.0476
66 | AGGTTTTG | -0.102
67 | CACCCCCG | 0.145
68 | ACCGGTGA | 0.248
69 | GCCCTCCA | -0.114
70 | ATCTACCC | 0.0943
71 | CCATTACG | -0.226
72 | ACAACTCT | -0.199
73 | ACAACTGA | -0.0947
74 | ATGTTGCG | 0.154
75 | CATACTAG | 0.0773

Row | Sequence | PBM E-score
76 | AGATCAAC | -0.117
77 | AGGTACCA | -0.114
78 | ATCTAAGC | -0.261
79 | ATCCAACA | -0.0549
80 | CCTGTATC | -0.0301
81 | GCCGAGTA | 0.119
82 | AAGGGAAA | -0.238
83 | CCGAAGCG | 0.279
84 | ACGAGGCC | 0.0992
85 | AACGGGGG | -0.0339
86 | ATGGTGTG | -0.23
87 | GCTTTCAC | -0.142
88 | ACTTCCAC | 0.0604
89 | GGGCCGGA | 0.418
90 | GGTGCAAA | -0.0749
91 | ATACCAGA | -0.142
92 | ACCAGACG | -0.241
93 | AATCAGGC | -0.00034
94 | GTTAAAGA | -0.108
95 | ACCCTCCT | -0.199
96 | GATTGAGC | -0.00835
97 | CAGTAGCA | -0.0829
98 | ACGTACGA | -0.153
99 | ATGGCGAG | -0.178
100 | CAGCCGTA | -0.0569

Row | Sequence | PBM E-score
101 | AGTATGGA | -0.0284
102 | AGCCCGTG | -0.0379
103 | CACGATGA | -0.181
104 | ACGTGTCC | 0.154
105 | CTAGCTGA | -0.213
106 | AGTTATCC | 0.116
107 | TGCGGGAA | 0.33
108 | GCTCAACC | -0.177
109 | GAAATTGA | 0.195
110 | AGTAAGAA | 0.0055
111 | AAGAGAAA | -0.0718
112 | GCATTCTA | -0.104
113 | CGAAAGGA | 0.154
114 | AAAGCACG | -0.239
115 | CACCCCCA | -0.259
116 | AAGACCTG | -0.145
117 | AAAGCGAG | 0.0641
118 | CCAAACAC | -0.144
119 | GCGTGGGA | -0.12
120 | AACCGCTG | -0.165
121 | AATACCAG | -0.0227
122 | CGCACATC | 0.11
123 | CTCTCGTC | -0.0968
124 | AATGGCCG | 0.261
125 | ATATCGTG | 0.059

Row | Sequence | PBM E-score
126 | AAGGAACA | -0.289
127 | GAAGTGCC | 0.0699
128 | GGGATTAC | 0.172
129 | GTCATCCA | -0.151
130 | ATTCGGCC | 0.284
131 | TATGCATA | -0.12
132 | CTCAGAGA | -0.212
133 | TGGTTAAA | -0.111
134 | ACTTTCCA | 0.0523
135 | CATTTAGA | 0.0126
136 | GTGAATAA | -0.0423
137 | ATGCTTTG | -0.0719
138 | AGGACCCT | -0.276
139 | CGTAAAAA | -0.116
140 | AGACACAA | 0.0242
141 | ATAATTAT | 0.0338
142 | CCTCTACC | -0.0861
143 | ACCTTTCT | -0.129
144 | ATAAATGC | -0.00686
145 | CTTGTGCC | -0.14
146 | ACAGAGGG | -0.169
147 | ATTGTATC | -0.0327
148 | ATCAACCG | 0.123
149 | CCCCAGGC | -0.144
150 | CTCACGGA | 0.264

Row | Sequence | PBM E-score
151 | ATTGGGAC | -0.131
152 | ACACTGCC | 0.154
153 | ACGCGAGT | 0.0357
154 | GGTCGACA | -0.0544
155 | CATAGCAG | -0.323
156 | AGATATAG | -0.0995
157 | AGGTCTAG | -0.268
158 | GATACCAC | 0.0374
159 | ACGAGCTC | 0.159
160 | TGTCTGAA | -0.131
161 | ATAGTGTA | -0.188
162 | GGGATACC | 0.101
163 | CACAAGAA | 0.126
164 | AAGCAAAC | -0.00769
165 | AGTTTTCA | 0.0469
166 | AAGCTTCT | -0.103
167 | AGGATGGG | -0.0635
168 | AGTAACCG | 0.0425
169 | CGTTGGAA | -0.0729
170 | AACATTGC | -0.126
171 | CCTCCCCA | 0.0214
172 | AACTCAGC | -0.0498
